In PubChem BioAssay AID686978 (National Center for Advancing Translational Sciences (NCATS), 2013):
In all, about 420,000 compounds went through this assay and about 64,000 (15%) were called active. Inconclusive means that the source gave no clear call. Such entries were picked first, then a sample of the others. Calls follow the shape of the dose curve; as a rule, active = well fitted inhibition curve with a large enough effect; inconclusive = small, poorly fitted or top-dose-only effect; inactive = flat fitted curve, though single readings scatter. Potencies of inconclusive entries are left out as doubtful fits.

Assay: qHTS for Inhibitors of human tyrosyl-DNA phosphodiesterase 1 (TDP1): qHTS in cells in absence of CPT; also: nearly all actives have a fitted effect of over 55% in size
Settings: DT40 Tdp1-/- hTDP1 cells, no CPT, ATP luminescence, 48 h; series mostly up to 46.2 µM
In short: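 Compound effects on proliferation are scored in DT40 Tdp1-/-;hTDP1 cells in the absence of CPT. ATP levels (CellTiter-Glo luminescence) are recorded after a ≥48 hr, 37 °C incubation.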
Potency is read from the fitted curve at half-maximal effect; tags tell the direction and shape of the fitted curve.

| SMILES | Potency |
| --- | --- |
| O=C(OCc1ccccc1)C1CCCN1C(=O)c1ccccc1[N+](=O)[O-] (stereo not drawn) | active: 16.4 µM |
| CCOC(=O)C(C)Sc1nc(-c2cccs2)ccc1C#N (stereo not drawn) | inconclusive [inhibitor, single point] |
| COc1ccc(-c2noc(N3CCCC(C(=O)Nc4cc(F)ccc4F)C3)n2)cc1 (stereo not drawn) | active: 18.4 µM |
| COc1ccccc1-c1nnc2sc(COc3ccc(F)cc3)nn12 | inconclusive [inhibitor, single point] |
| CCOC(=O)C1CCN(C(=O)C2c3ccccc3C(=O)N(C)C2c2ccc(OC)cc2)CC1 (stereo not drawn) | inconclusive [inhibitor, partial curve, poor fit] |
| Cc1nc(C)c(-c2csc(Nc3ccc(Cl)cn3)n2)s1 | inconclusive [inhibitor, single point] |
| CN(Cc1cccs1)S(=O)(=O)c1ccc(Cl)cc1F | inactive |
| COc1ccccc1-c1sc2ccccc2c1-c1ccc(O)cc1 | inconclusive [inhibitor, single point] |
| COc1cc(-c2nnco2)cc(OC)c1OC | inactive |
| CC(C)c1ccc(OCc2cc(=O)n3c4c(sc3n2)CCCC4)cc1 | inactive |
| CCOc1ccc(NC(=O)C2CCN(S(=O)(=O)CC)CC2)cc1 | inactive |
| COc1cc(/C=C/C(=O)Nc2nnc(CC(C)C)s2)cc(OC)c1OC | inconclusive [inhibitor, single point] |
| Cc1ccc(C)c(OCCC(=O)N(C)CC(=O)Nc2c(C)cccc2C)c1 | inactive |
| CC(C)(C)c1ccc(-c2noc(CCC(N)=O)n2)cc1 | inconclusive [inhibitor, single point] |
| Cn1c(=O)c2c(nc(SCCCC#N)n2Cc2c(F)cccc2Cl)n(C)c1=O | inconclusive [inhibitor, single point] |
| CCCCNC(=S)NCc1ccc2[nH]c3c(c2c1)CCCC3 | inconclusive [inhibitor, single point] |
| CC(=O)NCCc1nc2ccccc2n1Cc1cc(C)ccc1C | inconclusive [inhibitor, single point] |
| COc1ccc(C(CNC(=O)c2oc3ccccc3c2C)N2CCCC2)cc1 (stereo not drawn) | inconclusive [inhibitor, single point] |
| COc1cccc(-c2ocnc2C(=O)Nc2ccc(N3CCOCC3)cc2N2CCOCC2)c1 | inconclusive [inhibitor, single point] |
| CCc1cc(=O)oc2cc(OC(C)=O)cc(OC(C)=O)c12 | inconclusive [inhibitor, partial curve, poor fit] |
| Cc1ccc(NC(=O)CN(C)CC(=O)Nc2ccc(F)c(F)c2F)c(Cl)c1 | inconclusive [inhibitor, single point] |
| CCc1ccc(Nc2cc(C)nc3nc(Cc4ccc(Cl)cc4)nn23)cc1 | active: 9.2 µM |
| Cc1cc(C)nc(OC(C(=O)O)C(OCC(C)C)(c2ccccc2)c2ccccc2)n1 (stereo not drawn) | inconclusive [inhibitor, single point] |
| CCCN1C(=O)c2cccc3c(N4CCCCC4)ccc(c23)C1=O | inconclusive [inhibitor, partial curve, poor fit] |
| Cc1ccc([N+](=O)[O-])cc1NC(=O)CCCOc1ccccc1 | inactive |

| SMILES | Potency |
| --- | --- |
| COc1ccc(OCC(=O)Nc2cc(-c3cccc(Cl)c3)nn2-c2ccccc2)cc1 | inconclusive [inhibitor, single point] |
| O=C(NC(=S)NC1C2CC3CC(C2)CC1C3)C12CC3CC(CC(C3)C1)C2 (stereo not drawn) | active: 14.6 µM |
| Nc1ccc(Cl)c[n+]1Cc1cccc2cccnc12 | inconclusive [inhibitor, single point] |
| CC(C)(C)S(=O)(=O)Cc1nc(-c2ccc(Cl)c(Cl)c2)cs1 | inconclusive [inhibitor, single point] |
| O=C(NCc1ccccc1)C1CCC(=O)N(CC2CCCCC2)C1 (stereo not drawn) | inactive |
| CCS(=O)(=O)Nc1ccc(-c2nc3cccnc3s2)cc1 | inconclusive [inhibitor, single point] |
| Cc1ccc(NC(=O)CSCC(=O)N2c3ccccc3CCc3ccccc32)cc1 | inconclusive [inhibitor, partial curve] |
| Cc1ccc(S(=O)(=O)N[C@@H](C)CO)cc1 | inactive |
| Cc1occc1C(=O)N(C)Cc1nc(-c2ccc(Cl)cc2)no1 | active: 20.6 µM |
| O=C(NC1CCCCC1)c1ccc2c(c1)sc1nc(-c3ccccc3)cn12 | active: 10.3 µM |
| S=C(NC1CC1)N1CCc2ccccc2C1 | inconclusive [inhibitor, single point] |
| Cc1sc2ncnc(N[C@@H](Cc3c[nH]c4ccccc34)C(=O)O)c2c1C | inactive |
| CCN(Cc1cc2ccccc2[nH]c1=O)C(=O)C1CCCCC1 | inconclusive [inhibitor, single point] |
| Cc1cc2nc(-c3ccco3)c(Cc3cccc(Cl)c3)n2c(C)c1Br | inconclusive [inhibitor, single point] |
| FC(F)(F)c1ccccc1/C=N/N1CCN(Cc2ccccc2)CC1 | inconclusive [inhibitor, single point] |
| CCc1cc(-c2[nH]ncc2-c2nc3ccccc3n2C)c(O)cc1O | inconclusive [inhibitor, partial curve] |
| COc1ccccc1NC(=O)CN(c1ccc(C(C)C)cc1)S(=O)(=O)c1c(C)noc1C | active: 23.1 µM |
| CCCn1c(Nc2nc3ccccc3n2C)nc2ccccc21 | inconclusive [inhibitor, single point] |
| CC(=O)c1ccc(-n2c(CCC(=O)O)ccc2-c2ccc(Cl)cc2)cc1 | inactive |
| Cc1cc(C)c(C)c(S(=O)(=O)N2CCN(C(=S)NCC3CCCO3)CC2)c1C (stereo not drawn) | inconclusive [inhibitor, single point] |
| CCN(CC)S(=O)(=O)c1ccc(/C=C/C(=O)OCC(=O)Nc2ccc(S(N)(=O)=O)cc2)cc1 | inconclusive [inhibitor, single point] |
| CCN(CC)S(=O)(=O)c1ccc(N2CCCC2)c(NC(=O)C2CSC3(C)CCC(=O)N23)c1 (stereo not drawn) | inconclusive [inhibitor, single point] |
| CCN(CC)c1ccc(CNCc2cccs2)cc1 | active: 20.6 µM |
| O=c1oc2c(CN3CCN(CCO)CC3)c(O)ccc2cc1-c1ccccn1 | inactive |
| O=C(Nc1cccc(F)c1)N1CCC2(CCNCC2)CC1 | inconclusive [inhibitor, single point] |

| SMILES | Potency |
| --- | --- |
| CC1CCN(CC(O)COC2CCC(C(C)(C)C)CC2)CC1 (stereo not drawn) | active: 18.4 µM |
| CN(Cc1c(F)cccc1Cl)C(=O)C1CC(=O)N(CCc2ccccc2)C1 (stereo not drawn) | inactive |
| Cc1ccc(NC(=O)CNNC(=O)c2cccc([N+](=O)[O-])c2)cc1[N+](=O)[O-] | inconclusive [inhibitor, single point] |
| O=C(CN(C(=O)CNC(=O)c1cccs1)c1ccccc1F)NC1CCCC1 | inactive |
| CSCCC(NC(=O)c1cc([N+](=O)[O-])cc([N+](=O)[O-])c1)c1nc2ccccc2[nH]1 (stereo not drawn) | active: 16.4 µM |
| CC(=O)Nc1cc(-c2cccc(NS(C)(=O)=O)c2)cn2c(-c3ccccc3)cnc12 | inconclusive [inhibitor, single point] |
| O=c1[nH]c(Nc2ccccc2)cc2ccccc12 | inconclusive [inhibitor, single point] |
| CC(C)CN(CC(C)C)C(=O)COn1nnc2ccc(S(=O)(=O)N3CCOCC3)cc21 | inconclusive [inhibitor, single point] |
| O=C(CSC1=NCCS1)Nc1ccccc1F | inconclusive [inhibitor, single point] |
| Cc1ccc(NC(=O)C2CCCC2)cc1S(=O)(=O)N1CCOCC1 | inactive |
| O=C(Nc1ccccc1)c1ccc(-c2ccc(F)cc2)s1 | inactive |
| CCCCN1C(=O)C(CC(=O)NCc2cccc3ccccc23)CC(C(=O)N(CC)CC)=C1C (stereo not drawn) | inconclusive [inhibitor, single point] |
| CCOc1ccccc1NC(=O)CC1Nc2ccccc2NC1=O (stereo not drawn) | inconclusive [inhibitor, full curve, poor fit] |
| CCNC(=O)c1ccccc1-c1nc(-c2ccccc2OC)no1 | inconclusive [inhibitor, single point] |
| COc1cccc(C2C(C(=O)c3ccc(C)o3)=C(O)C(=O)N2CCN2CCOCC2)c1 (stereo not drawn) | inactive |
| CCCC(=O)NNC(=O)c1c(O)c2ccccc2[nH]c1=O | inconclusive [inhibitor, single point] |
| CC1CC(C)CN(C(=O)CCNS(=O)(=O)c2ccc3c(c2)CCC(=O)N3)C1 (stereo not drawn) | inactive |
| CN(CC(=O)Nc1ccncc1)S(=O)(=O)c1ccc(Cl)cc1 | inconclusive [inhibitor, partial curve] |
| CN(Cc1ccccc1)CC(O)COc1ccc(CNCc2cc3ccccc3s2)cc1 (stereo not drawn) | active: 29.1 µM |
| C=C(C)CN(CC)c1nc(N)c2c(N)nc3c(c2c1C#N)CC(=O)N3C12CC3CC(CC(C3)C1)C2 | active: 3.26 µM |
| COC(=O)c1cn(-c2ccccc2)nc1-c1ccccc1 | inactive |
| COc1ccc(S(=O)(=O)N2CCC(C(=O)Nc3ccccc3N3CCCCC3)CC2)cc1OC | inconclusive [inhibitor, single point] |
| Cc1cccc(N2C(S)=C(C#N)C(=O)NC2c2cccs2)c1 (stereo not drawn) | active: 13 µM |
